# Values of other authors in PubChem BioAssay AID1259409 (Chemical Carcinogenesis Research Information System (CCRIS), 2018).
# This continues a long series; more values of the same kind are listed elsewhere.
# Tested on: rodent chemically induced tumor inhibition, incidence and multiplicity
# Experiment: CCRIS tumor inhibitor studies
# Conditions: Species: RAT, Promoter: NONE USED
# From the text: The CCRIS database contains chemical records with carcinogenicity, mutagenicity, tumor promotion, and tumor inhibition test results. It was developed by the National Cancer Institute (NCI). Data are derived from studies cited in primary journals, current awareness tools, NCI reports, and other sources. Test results have been reviewed by experts in carcinogenesis and mutagenesis.
# CCRIS provides historical information from the years 1985 - 2011. It is no longer updated.
# This is an archive assay for CCRIS tumor inhibitor studies.
smiles,measurement,setting,value
O=[Se](O)O,"tumour outcome (control, treated, inhibition, significance)","Carcinogen: N-METHYL-N-NITROSOUREA, 684-9-35, Carcinogen: N-METHYL-N-NITROSOUREA, 684-9-35, Dose [Inhibitor]: 4 PPM IN DRINKING WATER DAILY FOR 10 MO STARTING SIMULTANEOUSLY WITH CARCINOGEN TREATMENT (STUDY DURATION: 10 MO), Dose [Inhibitor]: 4 PPM IN DRINKING WATER DAILY FOR 10 MO STARTING SIMULTANEOUSLY WITH CARCINOGEN TREATMENT (STUDY DURATION: 10 MO), Route [Inhibitor]: ORAL, Strain/Sex: WE/MALE, Target Tissue: Type of Lesion: HEART: NEUROGENIC SARCOMA, Dose [Carcinogen]: 20 MG/KG BW ONCE EVERY 4 WK FOR 40 WK","4/15 (27%), 7/16 (44%), -63%, not significant"
same,"tumour outcome (control, treated, inhibition, significance)","Carcinogen: N-METHYL-N-NITROSOUREA, 684-93-5, Carcinogen: N-METHYL-N-NITROSOUREA, 684-93-5, Dose [Inhibitor]: 4 MG/KG OF DIET DAILY STARTING 7 D AFTER CARCINOGEN TREATMENT AND CONTINUING FOR DURATION OF STUDY (STUDY DURATION: 130, Dose [Inhibitor]: 4 MG/KG OF DIET DAILY STARTING 7 D AFTER CARCINOGEN TREATMENT AND CONTINUING FOR DURATION OF STUDY (STUDY DURATION: 130, Route [Inhibitor]: ORAL, Strain/Sex: SPRAGUE-DAWLEY/FEMALE, Target Tissue: Type of Lesion: MAMMARY GLAND: ADENOCARCINOMA, Dose [Carcinogen]: 50 MG/KG BW IN 0.9% SALINE ONCE AT 50 D OF AGE","25/25 (100%), 25/25 (100%), 0%, not significant"
same,"tumour outcome (control, treated, inhibition, significance)","Carcinogen: N-METHYL-N-NITROSOUREA, 684-93-5, Carcinogen: N-METHYL-N-NITROSOUREA, 684-93-5, Dose [Inhibitor]: 4 PPM IN DIET DAILY FOR 128 D STARTING 7 D AFTER CARCINOGEN TREATMENT AND CONTINUING FOR DURATION OF STUDY (STUDY DURATI, Dose [Inhibitor]: 4 PPM IN DIET DAILY FOR 128 D STARTING 7 D AFTER CARCINOGEN TREATMENT AND CONTINUING FOR DURATION OF STUDY (STUDY DURATI, Route [Inhibitor]: ORAL, Strain/Sex: SPRAGUE-DAWLEY/FEMALE, Target Tissue: Type of Lesion: MAMMARY GLAND: CARCINOMA, Dose [Carcinogen]: 50 MG/KG BW IN ACIDIFIED SALINE (PH 4.0) ONCE AT 50 D OF AGE","90%, 90%, 0%, not significant"
same,"tumour outcome (control, treated, inhibition, significance)","Carcinogen: N-METHYL-N-NITROSOUREA, 684-93-5, Carcinogen: N-METHYL-N-NITROSOUREA, 684-93-5, Dose [Inhibitor]: 5 PPM IN DIET DAILY FOR 128 D STARTING 7 D AFTER CARCINOGEN TREATMENT AND CONTINUING FOR DURATION OF STUDY (STUDY DURATI, Dose [Inhibitor]: 5 PPM IN DIET DAILY FOR 128 D STARTING 7 D AFTER CARCINOGEN TREATMENT AND CONTINUING FOR DURATION OF STUDY (STUDY DURATI, Route [Inhibitor]: ORAL, Strain/Sex: SPRAGUE-DAWLEY/FEMALE, Target Tissue: Type of Lesion: MAMMARY GLAND: CARCINOMA, Dose [Carcinogen]: 50 MG/KG BW IN ACIDIFIED SALINE (PH 4.0) ONCE AT 50 D OF AGE","90%, 95%, -6%, not significant"
same,"tumour outcome (control, treated, inhibition, significance)","Carcinogen: N-METHYL-N-NITROSOUREA, 684-93-5, Carcinogen: N-METHYL-N-NITROSOUREA, 684-93-5, Dose [Inhibitor]: 6 PPM IN DIET DAILY FOR 128 D STARTING 7 D AFTER CARCINOGEN TREATMENT AND CONTINUING FOR DURATION OF STUDY (STUDY DURATI, Dose [Inhibitor]: 6 PPM IN DIET DAILY FOR 128 D STARTING 7 D AFTER CARCINOGEN TREATMENT AND CONTINUING FOR DURATION OF STUDY (STUDY DURATI, Route [Inhibitor]: ORAL, Strain/Sex: SPRAGUE-DAWLEY/FEMALE, Target Tissue: Type of Lesion: MAMMARY GLAND: CARCINOMA, Dose [Carcinogen]: 50 MG/KG BW IN ACIDIFIED SALINE (PH 4.0) ONCE AT 50 D OF AGE","90%, 90%, 0%, not significant"
same,"tumour outcome (control, treated, inhibition, significance)","Carcinogen: N-NITROSOBIS(2-OXOPROPYL)AMINE, 60599-38-4, Carcinogen: N-NITROSOBIS(2-OXOPROPYL)AMINE, 60599-38-4, Dose [Inhibitor]: 2 PPM IN DIET DAILY FOR 51 WK STARTING 1 WK BEFORE START OF CARCINOGEN TREATMENT AND CONTINUING FOR DURATION OF STUDY (S, Dose [Inhibitor]: 2 PPM IN DIET DAILY FOR 51 WK STARTING 1 WK BEFORE START OF CARCINOGEN TREATMENT AND CONTINUING FOR DURATION OF STUDY (S, Route [Inhibitor]: ORAL, Strain/Sex: MRC/MALE, Target Tissue: Type of Lesion: COLON: ADENOCARCINOMA, Dose [Carcinogen]: 5 MG/KG BW IN 0.9% SALINE 1/WK FOR 50 WK","12/29 (41%), 8/30 (27%), 34%, not calculated"
same,"tumour outcome (control, treated, inhibition, significance)","Carcinogen: N-NITROSOBIS(2-OXOPROPYL)AMINE, 60599-38-4, Carcinogen: N-NITROSOBIS(2-OXOPROPYL)AMINE, 60599-38-4, Dose [Inhibitor]: 2 PPM IN DIET DAILY FOR 51 WK STARTING 1 WK BEFORE START OF CARCINOGEN TREATMENT AND CONTINUING FOR DURATION OF STUDY (S, Dose [Inhibitor]: 2 PPM IN DIET DAILY FOR 51 WK STARTING 1 WK BEFORE START OF CARCINOGEN TREATMENT AND CONTINUING FOR DURATION OF STUDY (S, Route [Inhibitor]: ORAL, Strain/Sex: MRC/MALE, Target Tissue: Type of Lesion: LUNG: ADENOCARCINOMA, Dose [Carcinogen]: 5 MG/KG BW IN 0.9% SALINE 1/WK FOR 50 WK","4/29 (14%), 0/30 (0%), 100%, p<0.05"
